Assay results reported in the RNAGym collection of RNA variant scans (doi:10.7554/elife.90254).
The source gives no read counts; variants with many changes may rest on few reads.

B1: LINE1-mini (parent)
chain: GGCAGAGCUCAACACAGCGUGGCAAAGUGGCUGUGGCUAGACUGCC

Variants of: B1
Test: self-cleavage, relative activity (ratio to wild type); higher = more cleavage; in vitro, sequencing; the parent is a self-cleaving ribozyme

Variant | self-cleavage
GGCAGAGCUCAACACAACGUGGCAAAGUUGCAGUGGCUAGACUGCC [G17A G29U U32A] | 0.02
GGCAGAGCUCAACACAACGUGGCAAAGUGACUGUGGCUAGAAUGCC [G17A G30A C42A] | 0.09
GGCAGAGCUCAACACAACGUGGCAAAGUGCCUGUGGCUAGACUGGC [G17A G30C C45G] | 0.04
GGCAGAGCUCAACACAACGUGGCAAAGUGCCAGUGGCUAGAAAGCC [G17A G30C U32A C42A U43A] | 0.03
GGCAGAGCUCAACACAACGUGGCAAAGUGGCUAUGGAUAGACUACC [G17A G33A C37A G44A] | 0.42
GGCAGAGCUCAACACAACGUGGCAAAGUGGCUAUGGCUAGAAUGCC [G17A G33A C42A] | 0.1
GGCAGAGCUCAACACAACGUGGCAAAGUGGCUAUUGCUAGACUGCC [G17A G33A G35U] | 0.07
GGCAGAGCUCAACACAACGUGGCAAAGUGGCUUUGGCUAGACUGCU [G17A G33U C46U] | 0.09
GGCAGAGCUCAACACAACGUGGCAAAGUGGCUGUUGAUGGACUGCC [G17A G35U C37A A39G] | 0.04
GGCAGAGCUCAACACAACGUGGCAAAGUGGCUGUUCCCAGACUGGC [G17A G35U G36C U38C C45G] | 0.02
GGCAGAGCUCAACACAACGUGGCAAAGUGGCUGUUUCUAGACUGCC [G17A G35U G36U] | 0.05
GGCAGAGCUCAACACAACGUGGCAAAGUGGCUGUGUCUAGAUUGCC [G17A G36U C42U] | 0.04
GGCAGAGCUCAACACAACGAGGCAUAGUGGCUGUGGCUAGACUGCG [G17A U20A A25U C46G] | 0.05
GGCAGAGCUCAACACAACGAGGCAAAAUCGCUGUGGCUAGACUGCC [G17A U20A G27A G29C] | 0.39
GGCAGAGCUCAACACAACGAGGCAAAGUGGCUGUGGCUAGACGGAC [G17A U20A U43G C45A] | 0.04
GGCAGAGCUCAACACAACGCGGCAACGUGGCUGUGGCUAGACUGCC [G17A U20C A26C] | 0.08
GGCAGAGCUCAACACAACGCCACAAAGUGGAUGUGGCUAGACCGCA [G17A U20C G21C G22A C31A U43C C46A] | 0.01
GGCAGAGCUCAACACAACGCGGCAAAAUGGCUGUGGCUAGAAUGCC [G17A U20C G27A C42A] | 0.05
GGCAGAGCUCAACACAACGCGGCAAAGUGGCUGUGGCUACACUGCC [G17A U20C G40C] | 0.03

Variant | self-cleavage
GGCAGAGCUCAACACAACGCGGCAAAGUGGCUGGGGCUAGACUGCC [G17A U20C U34G] | 0
GGCAGAGCUCAACACAACGGGGCAAAGUGGCAGUGGCUAGACUGCC [G17A U20G U32A] | 0.04
GGCAGAGCUCAACACAACGUGGCAAAGAGGCGGUGGAUAGACUGGC [G17A U28A U32G C37A C45G] | 0.03
GGCAGAGCUCAACACAACGUGGCAAAGCGGCUGUUGCUGGACUGCC [G17A U28C G35U A39G] | 0.08
GGCAGAGCUCAACACAACGUGGCAAAGGGACUGUGGGUAGACUGCC [G17A U28G G30A C37G] | 0.05
GGCAGAGCUCAACACAACGUGGCAAAGUGGCAGUGGCUAGGGUGCC [G17A U32A A41G C42G] | 0
GGCAGAGCUCAACACAACGUGGCAAAGUGGCUGGGGCUAGACUGCG [G17A U34G C46G] | 0.01
GGCAGAGCUCAACACAACGUGGCAAAGUGGCUGUGGCGAUACUGCC [G17A U38G G40U] | 0.08
GGCAGAGCUCAACACACCGUGGCCAAGUGGCUGUGGCUAGAUUGCC [G17C A24C C42U] | 0.04
GGCAGAGCUCAACACACCGUGGCCAAGUGGCUGUGCCUAGACUGCC [G17C A24C G36C] | 0.04
GGCAGAGCUCAACACACCGUGGCGAAGUGGCUGUGGCUGGAUUGCC [G17C A24G A39G C42U] | 0.02
GGCAGAGCUCAACACACCGUGGCGAAAUGGCUGUGGCUAGACUGCC [G17C A24G G27A] | 0.61
GGCAGAGCUCAACACACCGUGGCGAAGUAACUGUGGCUAGACUGCC [G17C A24G G29A G30A] | 0.34
GGCAGAGCUCAACACACCGUGGCGAAGUGGCUGUUGCUAGACUGCC [G17C A24G G35U] | 0.11
GGCAGAGCUCAACACACCGUGGCGAAGUGGCUGUGGCUAAACUGCC [G17C A24G G40A] | 0.04
GGCAGAGCUCAACACACCGUGGCUAGGUGGCUAUGGCUAGACUACC [G17C A24U A26G G33A G44A] | 0.05
GGCAGAGCUCAACACACCGUGGCACAGUGGGUGUGGCUAGACUGCC [G17C A25C C31G] | 0.44
GGCAGAGCUCAACACACCGUGGCACAUUGGCUGAGGCUAGACUGCA [G17C A25C G27U U34A C46A] | 0.05
GGCAGAGCUCAACACACCGUGGCACAGUCGCUGUGGGUAGACUGCC [G17C A25C G29C C37G] | 0.02

Variant | self-cleavage
GGCAGAGCUCAACACACCGUGGCAGAGUCGCUGUGGCUAGACUGCC [G17C A25G G29C] | 0.07
GGCAGAGCUCAACACACCGUGGCAACGUGGCUGUGGCUAGACUGCU [G17C A26C C46U] | 0.72
GGCAGAGCUCAACACACCGUGGCAACGUGGCUGGGGCUAGACUGCC [G17C A26C U34G] | 0.03
GGCAGAGCUCAACACACCGUGGCAAGCUGGCUGUGGCUAGACUGCC [G17C A26G G27C] | 0.13
GGCAGAGCUCAACACACCGUGGCAAUGUGGCUGUGGCUAGACUUCC [G17C A26U G44U] | 0.04
GGCAGAGCUCAACACACCGUGGCAAAGUGGCUGUGGCUUCACUGCC [G17C A39U G40C] | 0.15
GGCAGAGCUCAACACACCGUGGCAAAGUGGCUGUGGCUUGACUCCC [G17C A39U G44C] | 0.04
GGCAGAGCUCAACACACAGUAGCAAAGUGGCUUUGGCUAGACUGCC [G17C C18A G21A G33U] | 0.02
GGCAGAGCUCAACACACAGUGACAAAGUGGCUGUGGCUAGACUGCC [G17C C18A G22A] | 0.15
GGCAGAGCUCAACACACGAUGGCUAAGCCGCUAGGGCUAGACUCCC [G17C C18G G19A A24U U28C G29C G33A U34G G44C] | 0
GGCAGAGCUCAACACACGGUUGCAAAGUGGCUGUGGCUAGACUGCC [G17C C18G G21U] | 0.14
GGCAGAGCUCAACACACGGUUGCAAAGUGGCUGUGUCUAGACUGCC [G17C C18G G21U G36U] | 0.03
GGCAGAGCUCAACACACGGUGGCAAAGUGGCUGUGGCUAGACUUAC [G17C C18G G44U C45A] | 0
GGCAGAGCUCAACACACGGAGGUAAAGUAGUUGUGGCUAGACUGCC [G17C C18G U20A C23U G29A C31U] | 0.29
GGCAGAGCUCAACACACUGUGGCAAAGUGGAUGUGGCUAGUCUGCU [G17C C18U C31A A41U C46U] | 0.02
GGCAGAGCUCAACACACUAUGGCAAAGUGGCUGUGGCUAGACUGCC [G17C C18U G19A] | 0.04
GGCAGAGCUCAACACACUAUGUCAAAGUGGCUGUGGCUAGACUGCC [G17C C18U G19A G22U] | 0.95
GGCAGAGCUCAACACACUGCGGCAAAGUGGCUGUGGCUAGACAGCC [G17C C18U U20C U43A] | 0.01
